# Measured values published in the supplement of paper PMC11417369.
# The list shows a part of the results.
# Tested on: PF3D7_0420300 AP2 domain 1 (GST-tagged)
# Assay: gcPBM binding intensity (ln(normalized median fluorescence intensity)); higher = stronger DNA binding
# Method in brief: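 GST-tagged P. falciparum DNA-binding domains, expressed in E. coli (about 25 μg on average), were applied for 1 h to an Agilent 4 × 180k array of primer-extended double-stranded 36-bp intergenic genomic probes plus negative controls. The binding buffer was 1× PBS with 1% milk, 0.2 mg/ml BSA, 0.5% salmon testes DNA and 0.03% Triton X-100. Bound protein was detected with Alexa488 anti-GST antibody and scanned at 488 nm. Binding intensity is the highest Masliner-normalised natural-log median intensity across replicate spots of either probe orientation.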
row,Sequence,gcPBM binding intensity (ln)
1,ATATTTATGTAATGTTTGATTTTTTTTTTATGTGTG [CACACA_negctrl_site1422],9.48
2,ACATATACATACATATGTACATATACATAAATATAT [XGTACX_site1285],9.29
3,CTATACAATAAAAATTGTACATACATATATGTTATA [XGTACX_site5309],9.17
4,AATTTTTCTTTTTTTTGTACAGAATATATATTTTAT [XGTACX_site1419],9.35
5,ATAATATGTTATTAAGTGCATATTAATTATTATTAT,9.2
6,AAATTTATAAATTAAAGTACATATTTCTTGAATATT [XGTACX_site859],9.01
7,TATTAAATTATATAGACACACATTATGTATATATAT [CACACA_site345],9.34
8,TATAGATACACTTTGTGTACATAAAAATTGTATTAA [XGTACX_site7137],8.96
9,AAATGAAGATTTAAATGTACGAGAGGGTATACAAAT [XGTACX_site5075],9.72
10,CATAATATTAAATCAGTGCAAATATACAGAATAAAT [GTGCAC_site9786],9.5
11,GACTTCTCCATATACACACACCAACAAATATAAAAA [CACACA_site7331],9.68
12,AATAAGCAGAAACACACACACAAAAAAAAAAAAAAA [CACACA_site719],9.75
13,TATGTATAAATATTAACACACAAAAAAAAAAAAAAA [CACACA_site6938],9.24
14,ATATAAACAAAGCAGTGCACGTAAACAAAACATATA [CACACA_negctrl_site1076],9.86
15,TACGAAAGGTAATATTGTACATTACAAAATTTTATA [XGTACX_site5512],9.05
16,AATATATACATATATGTACACACATTACAGATGTAC [CACACA_site8227],9.48
17,ATAGAATCTGGTAGCTGTACGAGTCGTAGAGTGCAG [XGTACX_site2026],9.23
18,AGGACTAATATTTGAACACACATATAATATATACAT [CACACA_site3998],9.54
19,GAAATGTATATTTTTACATGCAAATAAAATATATAA [TGCATGCA_site439],8.94
20,ATAACGACCTAGACGTGTACATACAAAGGAATGAAA [XGTACX_site4870],9.38
21,CATACACATAGACACACACACATATATACCTATATA [CACACA_site6644],10.1
22,ACACAATATATATATTGTACATACACATATTTACTA [XGTACX_site1872],9.45
23,TTTTTCTTGAATCGAAGTACTTAGGAGGGGATATTT [XGTACX_site2862],9.39

row,Sequence,gcPBM binding intensity (ln)
1,GAATATAAACATATTACACACATCTATAGGTACATT [CACACA_site6983],9.7
2,AAAGTAAAAATATACTGTACAAATTTTTTCCCCTCT [XGTACX_site171],9.29
3,AAAGAAAGCACATACACACACAAAAAAAAAAAAGAA [CACACA_site776],10.1
4,ATTTTTTAAAAAGTAACACACACTCTTATAAATAAC [CACACA_site7668],9.56
5,ATATTTATATACAAATGTACGCATATAATATATATA [XGTACX_site1232],9.18
6,GATGCACTTTAAAAATGTACTTATACCTTTAATTGT [XGTACX_site6395],9.21
7,AAACAAAAAAAAAAAAAAAAAAAAAAAAAAAAAAAA [GTGCAC_negctrl_site254],8.6
8,AGAGATTATAAAATATGTACTAAATATTAAATCTTA [XGTACX_site7050],9.1
9,AAAAAAATATTATAATATATATATATATATATATAT [GTGCAC_negctrl_site399],8.88
10,TTATTATTATATGAATGTACTTAAAAATACATTTTG [XGTACX_site2959],8.98
11,ATTCTATATACACGCACACACACTTATATATATATA [CACACA_site3322],10.1
12,CCCTTTTCTAAATATTGTACGTATAAATTATATTAC [XGTACX_site7676],9.2
13,GTACAGATAAATATTACACACATTTTCATTTTTAAC [CACACA_site5140],9.55
14,AAAAAGAAAAAACGAAGTACAATTATAAGATTATAT [XGTACX_site410],9.53
15,TTGTTCTTTTTTTTTTTATTTTTTAATTTGAAAAGA [CACACA_negctrl_site209],9.12
16,TATGAAAAATATCTTTGTACTTAGAAATATATACAC [XGTACX_site5393],9.13
17,TATGTGCCAAGACACACACACATATTTATATTTATA [CACACA_site6360],9.64
18,GTGATTTAATTGTGTTGTACATATTTATAAATAAAA [XGTACX_site8966],9.17
19,AAAAAAAAAAGAAACACACACATTTGTATTTAATAT [CACACA_site5184],9.78
20,TTCCATATAATTACATGTACACATTTTGAATAATAT [XGTACX_site3692],9.37
21,AGCACAGACGGACACACACACATATATATATATATA [CACACA_site4341],9.88
22,ATATATATGTATGTATGTACATATTTGAATTTATTT [XGTACX_site8470],9.19
23,ACAGATATACATAAAAAAAAAATAATTTTACATATA [CACACA_negctrl_site929],9.15

row,Sequence,gcPBM binding intensity (ln)
1,TTATAAATTATAGGTACACACAAAAAAAAAAAGAAA [CACACA_site1327],9.71
2,ATTTGTTACACTAAATGTACATACATACATATATAT [XGTACX_site6175],9.38
3,ATAAACATATCAATATGTACATATTTTTGTTTGTAT [XGTACX_site7018],9.34
4,ATTTATCAATAAAATGCACACACTGTAATATTATTA [CACACA_site3976],9.55
5,AAACCACAAAATTTTTTATATATGACCAATACATAG [CACACA_negctrl_site277],9.28
6,TTATAATAGTTAAATGTACACACTAACTACATGGAA [CACACA_site9070],9.27
7,ATATATATACATACATACCTATGTATATGTGTAATT [GTGCAC_negctrl_site50],9.24
8,ATGGTAGTGATTAAAAGTACACGTAATTGTAAAAAT [XGTACX_site387],9.45
9,TAAACAACTTATAAATGTACACATATTTTAATTACC [XGTACX_site5409],9.35
10,TAAGTGCATGAGATATGTACATATATAAAATATATA [XGTACX_site3294],9.18
11,AATAAAAACTAAACATGTACGCACATATATATATAT [XGTACX_site8096],9.43
12,TAAAAAAAAAAAAATACACACACACCGATATATATA [CACACA_site8498],10.2
13,TCATAGTCTTAATGACTACACACCTAACTATGCATG [CACACA_site1839],9.3
14,GTATATATTCATATGGAAAATAAAGGAGAAAACAAG [TGCATGCA_negctrl_site220],9.55
15,ATGTATGTATAATATACACACTCACAAGCATTCAAA [CACACA_site4306],9.43
16,TTTGTTTTTTCTTTTTGTACATATACAAGATACGTA [XGTACX_site2309],9.12
17,TTTTGTAATTCTCTTCATATAATTTATATATATATA [CACACA_negctrl_site1825],9.19
18,GTGTTTTTTTTAGATTGTACATATATATATATATAT [XGTACX_site4562],9.63
19,ACCCAACATATGTGTACACAGAAAATAAATATAATA [CACACA_site5901],9.4
20,AGATATTTTATAATTACACACATGAGGTTATTTGAA [CACACA_site1999],9.51
21,TTATAAAAATAATATCGTACAAATGACATAGATGAA [XGTACX_site2570],9.37
22,CATATACATAAACACACACACACATAAATAAATATA [CACACA_site4864],10.2
23,TATTATTTTTTAAATTGTACAATAAATTATAAAAGG [XGTACX_site1162],8.97

row,Sequence,gcPBM binding intensity (ln)
1,GAAAAGCAGATAAATGTGCACATATATGTTTGTATA,9.31
2,TATAGGTATATATAAGTGCAATATATATGTATATAC [GTGCAC_site9427],9.5
3,ACATAAAATTGTTAAAAAATTGTATAAATAATACAT [XGTACX_negctrl_site557],9.14
4,CAGCTCTTAAAAATTACACACATATACTCATATATA [CACACA_site5757],9.46
5,TTTTTTTCTTTATTAGCACACATAATATTATATATG [CACACA_site8841],9.42
6,TATATCATTATATAAACACACAATATGTTTTTTATA [CACACA_site3781],9.13
7,TATTAATCTAATTCATAAAAAATGATCTATTTTGTT [CACACA_negctrl_site1035],8.86
8,AAAATGAACAGACACACACACATATTTATATTTATA [CACACA_site7182],9.9
9,ACCTAAAAGGTATAATATATAAATAAAAAAAAAAAT [CACACA_negctrl_site134],9.3
10,AACATTTGATAAGATACACACACAAGGAAAAAAATA [CACACA_site8004],10
11,TAGAATAATCTATAAACACACAAACACAACAAAAGA [CACACA_site7861],10
12,ACATAAATTTAATACACACACAAAGAAAAAAAAAAA [CACACA_site4088],10.1
13,TAATATAATATATATACACACAAGAAATACAAAACG [CACACA_site1378],10.1
14,ATATTATTATAATATACATATATATATATAATATAT [CACACA_negctrl_site480],9.01
15,TATATATATAATTAAAGTACATATAACCACAAAAAT [XGTACX_site7289],9.61
16,GGTCTTTTCAACACACGTACATAAAAATATTATACA [XGTACX_site5360],9.47
17,TATATATTGATATGCACACCTATGTATTGATGTATA [CACACA_site1073],9.42
18,TAAACATATAGAGGGGTGCAAAGAATTGTAAAATTT,9.52
19,AATAATAATAAATATACACACATCATACAATTAACA [CACACA_site3679],9.85
20,TATTTTTTTCTTACTACACACATATAGATGCTTTCC [CACACA_site7825],9.57
